B1: GPR68, Q15743 (parent)
chain: MGNITADNSSMSCTIDHTIHQTLAPVVYVTVLVVGFPANCLSLYFGYLQIKARNELGVYLCNLTVADLFYICSLPFWLQYVLQHDNWSHGDLSCQVCGILLYENIYISVGFLCCISVDRYLAVAHPFRFHQFRTLKAAVGVSVVIWAKELLTSIYFLMHEEVIEDENQHRVCFEHYPIQAWQRAINYYRFLVGFLFPICLLLASYQGILRAVRRSHGTQKSRKDQIQRLVLSTVVIFLACFLPYHVLLLVRSVWEASCDFAKGVFNAYHFSLLLTSFNCVADPVLYCFVSETTHRDLARLRGACLAFLTCSRTGRAREAYPLGAPEASGKSGAQGEEPELLTKLHPAFQTPNSPGSGGFPTGRLA

Series [1] covers variants of B1. Description: cAMP reporter score (Enrich2 score, wild type = 0); higher = more signal; HEK293T, FACS bins.
The variants in series [2] derive from B1. The series is described as follows: surface expression score (Enrich2 score, wild type = 0); higher = more signal; HEK293T, FACS bins.

Scores with a large standard error are left out. Not listed are two conditions whose scores span a narrow range. Names with del lack the residues named; names with ins carry added residues between the positions named. For part of these data: The data file names ogerin without a concentration.

Take G323D: the cAMP reporter score turned out to be 0.564 in series [1] (pH 5.5); 0.325 in series [1] (pH 6); 0.121 in series [1] (pH 6, modulator: ogerin); 0.624 in series [1] (pH 6.5, modulator: ogerin). For the same variant, the surface expression score in series [2] turned out to be 0.584.

Turning to G323M, the cAMP reporter score is 0.043 in series [1] (pH 5.5); -0.728 in series [1] (pH 6); -0.059 in series [1] (pH 6, modulator: ogerin); -0.874 in series [1] (pH 6.5, modulator: ogerin). The surface expression score in series [2] is -1.11.

Turning to G323E, the cAMP reporter score in series [1] (pH 5.5) came to 0.67; in series [1] (pH 6, modulator: ogerin), 1.03; in series [1] (pH 6.5, modulator: ogerin), 1.55. Also, the surface expression score in series [2] came out at 1.59.

As to G323A, the cAMP reporter score is -1.32 in series [1] (pH 5.5); -0.667 in series [1] (pH 6, modulator: ogerin); -0.427 in series [1] (pH 6.5, modulator: ogerin). Further, in series [2], the surface expression score was -0.26.

Turning to G323N, the cAMP reporter score in series [1] (pH 5.5) came out at 0.237; in series [1] (pH 6) it was 0.485; in series [1] (pH 6, modulator: ogerin), 0.363; in series [1] (pH 6.5, modulator: ogerin) it was 0.463. Besides, in series [2], the surface expression score is -0.075.

As to G323W, the cAMP reporter score in series [1] (pH 5.5) is 0.166; in series [1] (pH 6, modulator: ogerin), -0.784; in series [1] (pH 6.5, modulator: ogerin), -0.825. Moreover, the surface expression score in series [2] is -1.21.

G323C: the cAMP reporter score was 0.082 in series [1] (pH 5.5); -0.928 in series [1] (pH 6); -0.329 in series [1] (pH 6, modulator: ogerin); -0.499 in series [1] (pH 6.5, modulator: ogerin). For the same variant, the surface expression score in series [2] is -0.309.

For the variant G323T, the cAMP reporter score in series [1] (pH 5.5) is 0.555; in series [1] (pH 6), 1.17; in series [1] (pH 6, modulator: ogerin), -0.215; in series [1] (pH 6.5, modulator: ogerin), 1.13. Further, the surface expression score in series [2] was -0.356.

Turning to G323Q, the cAMP reporter score in series [1] (pH 5.5) is -0.094; in series [1] (pH 6) it was 0.047; in series [1] (pH 6, modulator: ogerin) it was 0.355; in series [1] (pH 6.5, modulator: ogerin), -0.405. Moreover, the surface expression score in series [2] was determined as 0.481.

As to G323Y, the cAMP reporter score was 0.544 in series [1] (pH 5.5); -0.308 in series [1] (pH 6); 0.388 in series [1] (pH 6, modulator: ogerin); -0.121 in series [1] (pH 6.5, modulator: ogerin). Moreover, in series [2], the surface expression score worked out at 0.243.

Take G323R: the cAMP reporter score came out at 0.908 in series [1] (pH 5.5); 1.62 in series [1] (pH 6, modulator: ogerin); 0.725 in series [1] (pH 6.5, modulator: ogerin). The surface expression score in series [2] was found to be 0.617.

In the case of G323S, the cAMP reporter score was found to be 0.5 in series [1] (pH 5.5); 0.037 in series [1] (pH 6); 0.098 in series [1] (pH 6, modulator: ogerin); 0.337 in series [1] (pH 6.5, modulator: ogerin). The surface expression score in series [2] was -0.571.

Consider G323V, for which the cAMP reporter score in series [1] (pH 5.5) is -0.059; in series [1] (pH 6), -0.762; in series [1] (pH 6, modulator: ogerin) it was -0.035; in series [1] (pH 6.5, modulator: ogerin), -0.459. In series [2], the surface expression score was -0.694.

Take G323L: the cAMP reporter score in series [1] (pH 5.5) was -0.502; in series [1] (pH 6), -1.4; in series [1] (pH 6, modulator: ogerin), -0.939; in series [1] (pH 6.5, modulator: ogerin), -0.881. Also, in series [2], the surface expression score was -2.64.

For G323H, the cAMP reporter score in series [1] (pH 5.5) was 0.21; in series [1] (pH 6), 0.207; in series [1] (pH 6, modulator: ogerin), 0.145; in series [1] (pH 6.5, modulator: ogerin) it was -0.116. In addition, in series [2], the surface expression score was -0.533.

As for E326_A327del, the cAMP reporter score stood at 1.62 in series [1] (pH 5.5); 0.012 in series [1] (pH 6); 1.21 in series [1] (pH 6, modulator: ogerin); 1.32 in series [1] (pH 6.5, modulator: ogerin). Besides, the surface expression score in series [2] was 1.36.

As to L322_G323insG, the cAMP reporter score in series [1] (pH 5.5) was 0.04; in series [1] (pH 6), -0.424; in series [1] (pH 6, modulator: ogerin) it was 0.064; in series [1] (pH 6.5, modulator: ogerin), -0.166. Besides, in series [2], the surface expression score was -0.39.

For the variant L322_A324del, the cAMP reporter score was 0.426 in series [1] (pH 5.5); 0.269 in series [1] (pH 6); 0.596 in series [1] (pH 6, modulator: ogerin); -0.91 in series [1] (pH 6.5, modulator: ogerin). In addition, the surface expression score in series [2] was -0.024.

With G329_K330insGS, the cAMP reporter score in series [1] (pH 5.5) turned out to be 1.59; in series [1] (pH 6), 1.19; in series [1] (pH 6, modulator: ogerin), 1.16; in series [1] (pH 6.5, modulator: ogerin), 1.58. Moreover, the surface expression score in series [2] turned out to be 2.15.

For the variant P325C, the cAMP reporter score in series [1] (pH 5.5) is 0.427; in series [1] (pH 6), 0.134; in series [1] (pH 6, modulator: ogerin), 0.475; in series [1] (pH 6.5, modulator: ogerin) it was -0.212. The surface expression score in series [2] is -0.184.

For the variant P325K, the cAMP reporter score in series [1] (pH 5.5) was 0.99; in series [1] (pH 6), 0.65; in series [1] (pH 6, modulator: ogerin), 1.21; in series [1] (pH 6.5, modulator: ogerin), 0.758. The surface expression score in series [2] worked out at 0.433.

P325R: the cAMP reporter score in series [1] (pH 5.5) was 0.908; in series [1] (pH 6), 1.51; in series [1] (pH 6, modulator: ogerin), 1.54; in series [1] (pH 6.5, modulator: ogerin), 0.349. In series [2], the surface expression score is -0.356.

As for P325A, the cAMP reporter score in series [1] (pH 5.5) is 0.974; in series [1] (pH 6), 0.236; in series [1] (pH 6, modulator: ogerin), 1.21; in series [1] (pH 6.5, modulator: ogerin) it was 0.056. The surface expression score in series [2] stood at 0.431.

In the case of P325G, the cAMP reporter score was determined as 0.483 in series [1] (pH 5.5); 0.462 in series [1] (pH 6, modulator: ogerin); 0.636 in series [1] (pH 6.5, modulator: ogerin). Besides, in series [2], the surface expression score is -0.237.

In the case of P325L, the cAMP reporter score in series [1] (pH 5.5) is 0.585; in series [1] (pH 6, modulator: ogerin), 0.902; in series [1] (pH 6.5, modulator: ogerin), 0.669. Besides, the surface expression score in series [2] came out at 0.901.

With P325E, the cAMP reporter score in series [1] (pH 5.5) came to 0.265; in series [1] (pH 6, modulator: ogerin), 0.303; in series [1] (pH 6.5, modulator: ogerin), 0.928. Besides, the surface expression score in series [2] amounted to 0.067.

P325Y: the cAMP reporter score in series [1] (pH 5.5) was found to be 2.02; in series [1] (pH 6), 2.26; in series [1] (pH 6, modulator: ogerin), 1.09. Further, the surface expression score in series [2] turned out to be 0.126.

On to P325I, for which the cAMP reporter score in series [1] (pH 5.5) worked out at 0.499; in series [1] (pH 6), 0.653; in series [1] (pH 6, modulator: ogerin) it was 0.683; in series [1] (pH 6.5, modulator: ogerin), 0.518. The surface expression score in series [2] came to 1.53.

P325F: the cAMP reporter score was 0.29 in series [1] (pH 5.5); 0.216 in series [1] (pH 6); 0.267 in series [1] (pH 6, modulator: ogerin); -0.02 in series [1] (pH 6.5, modulator: ogerin). Further, the surface expression score in series [2] was 0.106.

As to P325H, the cAMP reporter score in series [1] (pH 5.5) was -0.821; in series [1] (pH 6), 0.676; in series [1] (pH 6, modulator: ogerin) it was -1.12. For the same variant, in series [2], the surface expression score is -0.632.

With P325Q, the cAMP reporter score in series [1] (pH 5.5) was 0.277; in series [1] (pH 6), -0.045; in series [1] (pH 6, modulator: ogerin) it was -0.026; in series [1] (pH 6.5, modulator: ogerin) it was -0.145. Besides, the surface expression score in series [2] stood at 0.309.

With P325M, the cAMP reporter score in series [1] (pH 5.5) stood at 1.37; in series [1] (pH 6, modulator: ogerin), 0.9; in series [1] (pH 6.5, modulator: ogerin), 0.825. Moreover, the surface expression score in series [2] worked out at 1.45.

(Values after the GPR68 mutational scans of Howard et al. (2025).)
